This continues a long series; more values of the same kind are listed elsewhere.
Experiment: Biodistribution of 67Ga complexes in mice
Type: in vivo, balb/c mice
Protocol: To ligand (50 μL, 10 mg/mL, 0.2 M NaOAc, […]) was added ^67 Ga citrate (18.5 MBq) and the resultant mixture diluted to 1 mL (0.2 M NaOAc, pH 7). The pH was adjusted to 12 with 1 M NaOH (20 μL) and heated at 40° C. for 40 min. The final volume was adjusted (to 5 mL) with saline and sterilised by filtering through a 0.22 μm filter.
Each animal was injected via tail vein with ^67 Ga complex (100 μL, ~3.7×10^5 Bq). Animals were sacrificed at various time intervals (5 animals per time point/6 time points). Data are illustrated in FIG. 26-30 and in Tables 13-17.
Each ^67 Ga-ligand complex has been evaluated in balb/c mice. […] (see FIG. 26-30).

SMILES: Cc1cc(C)c(O)c(NC(=O)CN(CCN(CC(=O)O)CC(=O)Nc2cc(C)cc(C)c2O)CC(=O)O)c1 [Compound 6]
- biodistribution bladder (1 min): 0.33 % ID
- biodistribution blood (1 min): 13.61 % ID
- biodistribution caecum (1 min): 0.27 % ID
- biodistribution colon (1 min): 0.49 % ID
- biodistribution duodenum (1 min): 0.08 % ID
- biodistribution heart (1 min): 0.29 % ID
- biodistribution ileum (1 min): 0.21 % ID
- biodistribution jejunum (1 min): 1.19 % ID
- biodistribution lungs (1 min): 0.78 % ID
- biodistribution pancreas (1 min): 0.25 % ID
- biodistribution salivary gl (1 min): 0.18 % ID
- biodistribution stomach GL (1 min): 0.20 % ID
- biodistribution stomach SQ (1 min): 0.08 % ID
- biodistribution testes (1 min): 0.17 % ID
- biodistribution bladder (3 min): 0.62 % ID
- biodistribution blood (3 min): 6.08 % ID
- biodistribution caecum (3 min): 0.20 % ID
- biodistribution colon (3 min): 0.28 % ID
- biodistribution duodenum (3 min): 0.43 % ID
- biodistribution heart (3 min): 0.13 % ID
- biodistribution ileum (3 min): 0.15 % ID
- biodistribution jejunum (3 min): 1.25 % ID
- biodistribution lungs (3 min): 0.64 % ID
- biodistribution pancreas (3 min): 0.11 % ID
- biodistribution salivary gl (3 min): 0.12 % ID
- biodistribution stomach GL (3 min): 0.22 % ID
- biodistribution stomach SQ (3 min): 0.07 % ID
- biodistribution testes (3 min): 0.17 % ID
- biodistribution bladder (5 min): 0.94 % ID
- biodistribution blood (5 min): 3.02 % ID
- biodistribution caecum (5 min): 0.13 % ID
- biodistribution colon (5 min): 0.18 % ID
- biodistribution duodenum (5 min): 0.41 % ID
- biodistribution heart (5 min): 0.09 % ID
- biodistribution ileum (5 min): 0.08 % ID
- biodistribution jejunum (5 min): 2.25 % ID
- biodistribution lungs (5 min): 0.25 % ID
- biodistribution pancreas (5 min): 0.06 % ID
- biodistribution salivary gl (5 min): 0.06 % ID
- biodistribution stomach GL (5 min): 0.20 % ID
- biodistribution stomach SQ (5 min): 0.04 % ID
- biodistribution tail (5 min): 0.73 % ID
- biodistribution testes (5 min): 0.12 % ID
- biodistribution bladder (10 min): 0.37 % ID
- biodistribution blood (10 min): 1.44 % ID
- biodistribution caecum (10 min): 0.17 % ID
- biodistribution colon (10 min): 0.27 % ID
- biodistribution duodenum (10 min): 1.75 % ID
- biodistribution heart (10 min): 0.04 % ID
- biodistribution ileum (10 min): 0.13 % ID
- biodistribution jejunum (10 min): 5.34 % ID
- biodistribution lungs (10 min): 0.17 % ID
- biodistribution pancreas (10 min): 0.12 % ID
- biodistribution salivary gl (10 min): 0.02 % ID
- biodistribution stomach GL (10 min): 1.61 % ID
- biodistribution stomach SQ (10 min): 0.32 % ID
- biodistribution tail (10 min): 0.84 % ID
- biodistribution testes (10 min): 0.07 % ID
- biodistribution bladder (30 min): 0.27 % ID
- biodistribution blood (30 min): 0.33 % ID
- biodistribution caecum (30 min): 0.15 % ID
- biodistribution colon (30 min): 0.27 % ID
- biodistribution duodenum (30 min): 0.27 % ID
- biodistribution heart (30 min): 0.01 % ID
- biodistribution ileum (30 min): 0.06 % ID
- biodistribution jejunum (30 min): 3.41 % ID
- biodistribution lungs (30 min): 0.19 % ID
- biodistribution pancreas (30 min): 0.08 % ID
- biodistribution salivary gl (30 min): 0.01 % ID
- biodistribution stomach GL (30 min): 0.35 % ID
- biodistribution stomach SQ (30 min): 0.03 % ID
- biodistribution tail (30 min): 0.55 % ID
- biodistribution testes (30 min): 0.07 % ID
- biodistribution bladder (120 min): 0.62 % ID
- biodistribution blood (120 min): 1.79 % ID
- biodistribution bone (120 min): 0.06 % ID
- biodistribution caecum (120 min): 1.70 % ID
- biodistribution colon (120 min): 0.72 % ID
- biodistribution duodenum (120 min): 0.02 % ID
- biodistribution heart (120 min): 0.00 % ID
- biodistribution ileum (120 min): 0.10 % ID
- biodistribution jejunum (120 min): 0.12 % ID
- biodistribution lungs (120 min): 0.01 % ID
- biodistribution pancreas (120 min): 0.00 % ID
- biodistribution salivary gl (120 min): 0.00 % ID
- biodistribution stomach GL (120 min): 0.01 % ID
- biodistribution stomach SQ (120 min): 0.01 % ID
- biodistribution tail (120 min): 0.10 % ID
- biodistribution testes (120 min): 0.02 % ID
